Source: US11542311B2, “Fusion protein, preparation method therefor and application thereof in preparing ophthalmic disease treatment, anti-inflammation and anti-tumor medicament” (JIANGSU RONGTAI BIOTECH CO., LTD., priority 2017, dated 2023)

B1: Protein I: Fc fusion protein Fc-IL4DM-HM3: IgG1-Fc, IL-4 and HM-3 joined by flexible (F) linker; SEQ ID NO: 1 (protein)
chain: [gap - human IgG1 Fc]GGGGSGGGGSGGGGSHKCDITLQEIIKTLNSLTEQKTLCTELTVTDIFAASKNTTEKETFCRAATVLRQFYSHHEKDTRCLGATAQQFHRHKQLIRFLKRLDRNLWGLAGLNSCPVKEANQSTLENFLERLKTIMDEKDSKCSSGGGGSGGGGSGGGGSIVRRADRAAVPGGGGRGD
B2: Protein II: Fc fusion protein Fc-IL4DM-HM3: IgG1-Fc, IL-4 and HM-3 joined by rigid (R) linker; SEQ ID NO: 2 (protein)
chain: [gap - human IgG1 Fc]AEAAAKEAAAKEAAAKEAAAKAHKCDITLQEIIKTLNSLTEQKTLCTELTVTDIFAASKNTTEKETFCRAATVLRQFYSHHEKDTRCLGATAQQFHRHKQLIRFLKRLDRNLWGLAGLNSCPVKEANQSTLENFLERLKTIMDEKDSKCSSAEAAAKEAAAKEAAAKEAAAKAIVRRADRAAVPGGGGRGD

How the values were obtained:
[1] = system: IL-1β production by mouse peritoneal macrophages; test: IL-1β production by mouse peritoneal macrophages (ELISA); assay type: cell-based; settings: 48 h; for PI (%): IL-1β
Experimental: (1) IL-1β production: mice were intraperitoneally injected with 1 mL of broth medium containing 6% starch, and three days later, the mouse peritoneal macrophages were aseptically taken, washed twice with a 1640 medium, adjusted to the cell concentration of 2×10^6 cells/mL, inoculated into a 24-well culture plate, 1 mL/well, incubated for 3 h in a cell culture incubator, and shaken once every 30 min, so that the cells were allowed to adhere sufficiently. Then, the cells were washed twice with a culture liquid to remove un-adhered cells. […] After administration, the culture was continued for 48 h, the cells were centrifuged at 1000 r/min for 15 min. The supernatant was taken as a sample for testing activity of IL-1β.
(2) Determination of IL-1β content: the detection was performed by using mouse IL-1β enzyme-linked immunosorbent assay kit from R&D company. According to the instructions of the kit, the procedures were as follows: the reaction well for the test samples and standards with different concentration were sealed with sealing tapes, respectively, incubation was performed at 37° C. for 90 min; the plate was washed four times; a biotinylated antibody working solution (100 μL/well) was added, the reaction well was sealed with sealing tapes, and incubation was performed at 37° C. for 60 min; the plate was washed four times; an enzyme conjugate working solution (100 μL/well) was added, the reaction well was sealed with sealing tapes, incubation was performed at 37° C. for 30 min; the plate was washed four times; a developer (100 μL/well) was added, incubation was performed at 37° C. away from light for 10 to 20 min, a stop solution (100 μL/well) was added and mixed, and the OD450 value was measured.

[2] = system: toe swelling in rat induced by carrageenan; test: Acute inflammation of toe swelling in rat induced by carrageenan; assay type: in vivo, SD rats
Experimental: 80 SD rats were randomly divided into 8 groups with 10 mice for each group. […] The drug was administered once by injection every 5 days, and the model group was given an equal volume of physiological saline for 3 days and fed normally. On the third day after the administration, 0.1 mL of 1% carrageenan was injected subcutaneously into the right hind toes of the rats to induce inflammation. The foot volume was measured at 1 h, 3 h, 5 h, and 7 h after inflammation. The swelling degree of the foot was calculated according to the following formula: the swelling degree of the foot (mL)=the volume of the foot after inflammation−the volume before inflammation. The number of milliliters of spilled liquid was recorded (method: the protruding point of the right joint was circled with a ballpoint pen and used as a measurement mark, and the right hind feet of the rats were sequentially placed in the volume measuring device, so that the hind limbs were exposed outside the cylinder, and the depth of the immersion was limited to the overlap of the circle and the liquid level. After the foot entered the liquid, the liquid level was raised, and the volume of the spilled liquid was the volume of the right hind foot of the rat, and the normal volume of the right hind foot of each mouse is sequentially determined).

melanoma cell B16F10 = test: MTT assay, proliferation of melanoma cell B16F10; assay type: cell-based; settings: 48 h
Experimental: The MTT assay was used to detect the inhibitory effect of the integrin blocker fusion protein obtained in Example 1 on the proliferation of various tumor cells, including melanoma cell B16F10, gastric cancer cell MGC-803, lung cancer cell A549, liver cancer cell Hep-G2, breast cancer cell MDA-MB-231, colon cancer cell HCT-116, human glioma U87, and cervical cancer cell Hela.
The tumor cells were cultured in a 5% CO2 incubator at 37° C. to a density of 90% or more, and collected by trypsinization. The cells were resuspended in the culture liquid and counted under a microscope. The cell concentration was adjusted to 3.0×10^4 cells/mL. The cell suspension was inoculated into a 96-well plate, 100 μL per well, and cultured overnight in a 5% CO2 incubator at 37° C. The fusion proteins I, II, and the positive drug Taxol were diluted with the culture liquid to respective predetermined concentrations. After the cells were fully adhered, each dilution was added to a 96-well plate, 100 μL per well, respectively. The integrin blocker fusion proteins I and II were added as an administration group, Taxol was used as a positive control group, and the culture liquid without any drug was used as a blank control group, and incubated in an 5% CO2 incubator at 37° C. for 48 hours. 20 μL of 5 mg/mL MTT was added to each well of a 96-well plate, and incubation was continued for 4 hours. The medium was aspirated and 100 μL of DMSO per well were added to dissolve. The absorbance was measured at 570 nm with a microplate reader with a reference wavelength of 630 nm, and the proliferation inhibition (PI) was calculated. The formula is as follows: […]
where Ntest is the OD value of the test group and Ncontrol is the OD value of the blank control group.
The test was repeated 5 times independently. The results obtained from the test were calculated as mean±SD, and statistical t-test was performed. P<0.05 was considered as significant difference, and P<0.01 was considered as an extremely significant difference.

[3] = 32 mg/kg, 1 h after carrageenan
[4] = 32 mg/kg, 3 h after carrageenan
[5] = 32 mg/kg, 5 h after carrageenan
[6] = 32 mg/kg, 7 h after carrageenan
[7] = 128 mg/kg, 1 h after carrageenan
[8] = 128 mg/kg, 3 h after carrageenan
[9] = 128 mg/kg, 5 h after carrageenan
[10] = 128 mg/kg, 7 h after carrageenan

Row | Molecule | IL-1β ([1]; 8 μg/mL) [pg/mL] | IL-1β ([1]; 32 μg/mL) [pg/mL] | IL-1β ([1]; 128 μg/mL) [pg/mL] | PI (%) ([1]; 8 μg/mL) | PI (%) ([1]; 32 μg/mL) | PI (%) ([1]; 128 μg/mL) | Swelling degree ([2]; 8 mg/kg, 1 h after carrageenan) [mL] | Swelling degree ([2]; 8 mg/kg, 3 h after carrageenan) [mL] | Swelling degree ([2]; 8 mg/kg, 5 h after carrageenan) [mL] | Swelling degree ([2]; 8 mg/kg, 7 h after carrageenan) [mL] | Swelling degree [2, 3] [mL] | Swelling degree [2, 4] [mL] | Swelling degree [2, 5] [mL] | Swelling degree [2, 6] [mL] | Swelling degree [2, 7] [mL] | Swelling degree [2, 8] [mL] | Swelling degree [2, 9] [mL] | Swelling degree [2, 10] [mL] | A570 nm/A630 nm (melanoma cell B16F10; 1 μg/mL) | PI (%) (melanoma cell B16F10; 1 μg/mL) | further results
1 | B1 | 722.85 ± 9.95 | 495.30 ± 14.58 | 322.56 ± 13.52 | 16.04 | 42.47 | 62.53 | 0.27 ± 0.13 | 0.41 ± 0.15 | 0.44 ± 0.15 | 0.35 ± 0.09 | 0.29 ± 0.07 | 0.36 ± 0.21 | 0.37 ± 0.14 | 0.34 ± 0.11 | 0.28 ± 0.15 | 0.32 ± 0.08 | 0.34 ± 0.21 | 0.32 ± 0.18 | 1.1081 ± 0.0159 | 11.75 | A570 nm/A630 nm (melanoma cell B16F10; 2 μg/mL): 1.0012 ± 0.0786; PI (%) (melanoma cell B16F10; 2 μg/mL): 20.26%; A570 nm/A630 nm (melanoma cell B16F10; 4 μg/mL): 0.8611 ± 0.0643; PI (%) (melanoma cell B16F10; 4 μg/mL): 31.42%; A570 nm/A630 nm (melanoma cell B16F10; 8 μg/mL): 0.6974 ± 0.0421; PI (%) (melanoma cell B16F10; 8 μg/mL): 44.46%; A570 nm/A630 nm (melanoma cell B16F10; 16 μg/mL): 0.5234 ± 0.0769; PI (%) (melanoma cell B16F10; 16 μg/mL): 58.31%; A570 nm/A630 nm (melanoma cell B16F10; 32 μg/mL): 0.4331 ± 0.0591; PI (%) (melanoma cell B16F10; 32 μg/mL): 65.51%; A570 nm/A630 nm (melanoma cell B16F10; 64 μg/mL): 0.3032 ± 0.0279; PI (%) (melanoma cell B16F10; 64 μg/mL): 75.85%; A570 nm/A630 nm (melanoma cell B16F10; 128 μg/mL): 0.1954 ± 0.0499; PI (%) (melanoma cell B16F10; 128 μg/mL): 84.44%; A570 nm/A630 nm (melanoma cell B16F10; 256 μg/mL): 0.0834 ± 0.0334; PI (%) (melanoma cell B16F10; 256 μg/mL): 93.36%
2 | B2 | 755.56 ± 17.82 | 610.06 ± 19.97 | 468.96 ± 12.59 | 12.24 | 29.14 | 45.53 | 0.26 ± 0.13 | 0.42 ± 0.12 | 0.42 ± 0.13 | 0.38 ± 0.08 | 0.25 ± 0.21 | 0.30 ± 0.14 | 0.35 ± 0.09 | 0.32 ± 0.19 | 0.27 ± 0.05 | 0.32 ± 0.15 | 0.33 ± 0.10 | 0.31 ± 0.16 | 1.1154 ± 0.0382 | 11.17 | A570 nm/A630 nm (melanoma cell B16F10; 2 μg/mL): 1.0259 ± 0.0232; PI (%) (melanoma cell B16F10; 2 μg/mL): 18.29%; A570 nm/A630 nm (melanoma cell B16F10; 4 μg/mL): 0.8991 ± 0.0725; PI (%) (melanoma cell B16F10; 4 μg/mL): 28.39%; A570 nm/A630 nm (melanoma cell B16F10; 8 μg/mL): 0.7251 ± 0.0429; PI (%) (melanoma cell B16F10; 8 μg/mL): 42.25%; A570 nm/A630 nm (melanoma cell B16F10; 16 μg/mL): 0.6411 ± 0.0659; PI (%) (melanoma cell B16F10; 16 μg/mL): 48.94%; A570 nm/A630 nm (melanoma cell B16F10; 32 μg/mL): 0.5034 ± 0.0279; PI (%) (melanoma cell B16F10; 32 μg/mL): 59.91%; A570 nm/A630 nm (melanoma cell B16F10; 64 μg/mL): 0.3865 ± 0.0189; PI (%) (melanoma cell B16F10; 64 μg/mL): 69.22%; A570 nm/A630 nm (melanoma cell B16F10; 128 μg/mL): 0.2939 ± 0.0319; PI (%) (melanoma cell B16F10; 128 μg/mL): 76.59%; A570 nm/A630 nm (melanoma cell B16F10; 256 μg/mL): 0.1749 ± 0.0209; PI (%) (melanoma cell B16F10; 256 μg/mL): 85.07%
